Test results: PubChem BioAssay AID1508624 (National Center for Advancing Translational Sciences (NCATS), 2021)
The whole screen tested about 48,000 compounds, of which about 120 (0.25%) were called active. Another 4% or so got no clear call; they are omitted. The call rests on the fitted dose curve; in most records, active means well fitted activation curve with a large enough effect; inconclusive means small, poorly fitted or top-dose-only effect, or another doubt; inactive means no such curve, though single readings can be large or run the other way. The list shows a part of the results.

Assay: Primary qHTS for Identification of Small Molecule Activators of Huntingtin-Antisense Promoter Activity; further: nearly all actives have a fitted effect of over 55% in size
Conditions: HEK293 HTT-AS promoter firefly luciferase reporter, 24 h; series mostly up to 57.5 µM; activity change, positive = activation: at the top concentration
Summary of the method: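 HEK293 luciferase promoter-reporter cells (2,500/well) plated 24 h, then compounds added at up to 57.5 uM final for 24 h at 37 °C. Firefly luminescence by Dual-Glo, normalized to vehicle (0%) and zero RLU (-100%).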

Activity change, positive = activation, inactive:
Cc1ccc(CNC(=O)Cn2c(=O)n(-c3ccccc3)c(=O)c3c2c2cc(C)ccc2n3C)cc1 -12.1%
CCCCN(C)CCNC(=O)Cn1ncc2c([nH]c3ccccc32)c1=O -4.05%
Cc1ccc(NC(=O)CCSc2nc(-c3ccc4c(c3)OCO4)cc(C(F)(F)F)n2)cc1 -18.6%
CCc1ccc(Oc2nc3c(C)cccn3c(=O)c2/C=C(\C#N)c2nc3ccccc3s2)cc1 -3.62%
O=C(c1ccc(Cl)cc1)n1nc(-c2ccco2)nc1NCc1cccs1 33.3%
CCOC(=O)c1cccc(NC(=O)CCNS(=O)(=O)c2cccc3nonc23)c1 -11.4%
CC1=C(c2ccc(Cl)cc2)S(=O)(=O)NC1=NCc1ccc(C)cc1 -3.41%
O=C(CSc1nc2c(oc3ccccc32)c(=O)[nH]1)Nc1cccc(Cl)c1 11.4%
O=c1cc(CO)occ1O -1.36%
CN(C)c1cccc(C(=O)Nc2ccc(-c3nc4ccccc4s3)cc2)c1 -3.48%
CC12CN3CC(C)(CN(C1)C3c1ccc(OCc3ccccc3)cc1)C2=O (stereo not given) 19.3%
Cn1c(C(=O)N2CCC(C(=O)NCCc3ccc(S(N)(=O)=O)cc3)CC2)cc2sccc21 0.824%
CCOC(=O)c1ccc(NC(=O)c2cc3c(n(-c4ccc(C)cc4)c2=O)CC(C)(C)CC3=O)cc1 -13.7%
Cc1ccc(CCNC(=O)c2ccc(CSCc3ccc(C)cc3)o2)cc1 -39.7%
COc1ccc(-c2nc3scc(CCNS(=O)(=O)c4cccc(C(C)=O)c4)n3n2)cc1 -18.4%
Cc1ccc(NC(=O)CSc2nnc(C)c(=O)[nH]2)cc1 -2.66%
CCc1ccc(NC(=O)Cn2c(=O)ccc3cc(S(=O)(=O)N4CCCC4)ccc32)cc1 -19%
O=C1Nc2cc(Cl)ccc2Oc2cc(Oc3ccccc3)ccc21 -23.5%
COc1ccc(Cn2ccc3nc(C)c(C(=O)Nc4ccc(OC)cc4OC)cc3c2=O)cc1 -0.741%
Cc1cc(C)c(S(=O)(=O)Nc2cccc(-c3cn4ccccc4n3)c2)c(C)c1 7.91%
Cc1ccc(NC(=O)Cn2c(=O)n(CCc3ccccc3)c(=O)c3c4c(sc32)CCCC4)cc1C -7.3%
Cc1ccc(C)c(CN2C(=O)c3ccccc3S(=O)c3ccc(C(=O)NCc4ccco4)cc32)c1 (stereo not given) -35.7%
Cc1ccc(NC(=O)Cn2cc(S(=O)(=O)NC(C)C)c(S(=O)(=O)NC(C)C)c2)cc1Cl -6.87%
COc1ccc(Oc2nc3c(c(=O)n(Cc4ccccc4Cl)c(=O)n3C)n2C)cc1 1.17% [at 11.5 µM, percent change from vehicle, -100% = no light]
Cc1cc2ccccc2n1-c1ccc(C(=O)N2CCC(C(=O)NCc3ccc(F)cc3)CC2)s1 -41.8%
COC(=O)c1c(SCC(=O)Nc2ccccc2OC)[nH]c2ccccc2c1=O 5.9%
COc1ccc(CNC(=O)Cn2ccc3cc(S(=O)(=O)N4CCCCCC4)ccc32)c(OC)c1 -19.9%
Cc1ccc(N2CC(NC(=O)/C=C\c3ccc4c(c3)OCO4)CC2=O)cc1 (stereo not given) -17.3%
O=C(C1CC1)N1CCc2cc(Br)cc(S(=O)(=O)N3CCN(c4ccccc4F)CC3)c21 -14.5%
COc1cccc(NC(=O)c2ccc(CNS(=O)(=O)c3ccc4c(c3)C(C)(C)C(=O)N4C)cc2)c1 -37.9%
O=C(/C=C/c1ccco1)Nc1ccc(Cl)c(-c2nc3cc(Cl)ccc3o2)c1 -11.8%
Cc1c(Cl)cccc1NC(=O)CSc1cc(-c2ccccc2)ncn1 -11.9%
Cc1ccc(NC(=O)C2CCN(c3nn4c(=O)cc(C)nc4s3)CC2)cc1 -6.25%
CC(C)n1c(=O)c2oc3ccccc3c2n(Cc2ccccc2F)c1=O -30.1%
Cc1ccc(-c2nnc(Nc3ccc(O)cc3)c3ccccc23)cc1S(=O)(=O)NCC1CCCO1 (stereo not given) -49.3%
Cc1ccc(S(=O)(=O)Nc2ccc3c(c2)c(C(=O)OC(C)C)c(C)n3S(=O)(=O)c2ccc(C)cc2)cc1 -23.4%
COc1ccc(S(=O)(=O)NCCc2cn3ccsc3n2)cc1 -12.4%
CC(=O)c1ccc(NC(=O)c2ccc(CN3C(=O)CCn4nc(C)cc43)cc2)cc1 7.86%
O=S(=O)(Nc1ccc(Br)cc1)c1ccc2nc(-c3ccccc3)[nH]c2c1 -34.7%
Cc1ccc(CCNC(=O)CN2CCN(Cc3ccc(Cl)cc3)C2=O)cc1 -7.03%
O=C(CCC1N=C2c3ccccc3N=C(SCc3cccc(F)c3)N2C1=O)NCc1ccc(F)cc1 (stereo not given) 1.51%
O=C(Nc1ccccc1Br)N1CCN2CCCCC2C1 (stereo not given) -2.75%
Cc1cccc(-c2[nH]c(C(C)(C)C)nc2-c2ccc3c(c2)OCO3)n1 -30.2%
Cc1nn2c(=O)cc(COC(=O)c3ccc(F)cc3)nc2s1 14.1%
NC1CCN(c2cccc(Cl)n2)CC1 3.98%
CCc1ccc(NC(=O)CN2C(=O)CCSc3ccc(S(=O)(=O)N4CCCC4)cc32)cc1 -9.47%
COc1ccc(C(=O)c2cn(Cc3cccc(C)c3)c3cc4c(cc3c2=O)OCCO4)cc1OC -18.1%
COc1ccc(CCNC(=O)Cn2ccc3cc(S(=O)(=O)N4CCCCC4)ccc32)cc1OC -35.8%
CCN(CC)CCNC(=O)Cn1ncc2c3ccccc3n(Cc3ccccc3C)c2c1=O -15.6%
Cn1nnnc1SCCCNCc1ccccc1OCc1ccccc1F -20.6%
COC(=O)c1ccccc1NC(=O)c1cc(=O)c2ccc(C)c(C)c2o1 9.78% [at 11.5 µM, percent change from vehicle, -100% = no light]
CCOC(=O)c1cccc(Nc2cc(C)nc(C)n2)c1 3.35%
Cc1nnc2c3ccccc3nc(N3CCN(c4cccc(Cl)c4)CC3)n12 -20.8%
CCOCCCn1c(=N)c(C(=O)NC2CCCC2)cc2c(=O)n3cccc(C)c3nc21 -4.01%
Cc1cccc(-n2ncc3c(Nc4c(C)cc(C)cc4C)ncnc32)c1 -22.7%
Cc1noc(Cn2c(=O)c3ccccc3n(CC(=O)Nc3ccccc3C(F)(F)F)c2=O)n1 -9.06%
Oc1ccc(Nc2nc(-c3ccc(Cl)cc3)nc3ccccc23)cc1 -20.3%
COc1ccccc1CNC(=O)CN1C(=O)CCCc2ccccc21 3.84%
CCCCOc1ccc(C2c3c(oc4ccccc4c3=O)C(=O)N2c2nc(C)c(C(=O)OCC)s2)cc1OC (stereo not given) -2.82% [at 11.5 µM, percent change from vehicle, -100% = no light]
CCN(C(=O)c1c(O)c2c(Cl)cccc2n(C)c1=O)c1ccccc1 -0.165%
COc1ccc(NC(=O)C2(S(=O)(=O)c3ccc(C)cc3)CC2)c(OC)c1 -6.13%
CC(=O)NC(=O)c1ccccc1O -7.75%
COc1ccc(-c2c(C)c3ccc(O)c(CN4CCCCC4C)c3oc2=O)cc1OC (stereo not given) -12.8%
CCCN(CCC)C(=O)Cn1c(=O)n(-c2ccc(CC)cc2)c(=O)c2c3c(sc21)CCC3 -22.5%
CCSc1ncc(Cl)c(C(=O)Nc2ccc(S(=O)(=O)N3CCCCC3CC)cc2)n1 (stereo not given) -25.6%
Cc1ccc(CN(C(=O)COc2cccc(Cl)c2)c2ccccn2)o1 -20.1%
CCOc1ccc(NC(c2ccc(Cl)cc2)c2nnc(-c3cccc(F)c3)o2)cc1 (stereo not given) -2.92%
COc1cc(O)ccc1-c1nc2ccc(Br)cn2c1Nc1ccccc1C -40.6%
O=C(Nc1ccccc1F)C(c1ccccc1)N1Cc2ccccc2C1=O (stereo not given) -0.107%
O=C(CSc1nccn1Cc1ccc(F)cc1)NC1CCCC1 -14.9%
CCCOC(=O)c1ccc(NC(=O)C2CC(=O)N(c3ccc(C)cc3)C2)cc1 (stereo not given) 6.28%
CCOC(=O)C1CCN(c2nc3c(S(=O)(=O)c4ccc(CC)cc4)nnn3c3ccc(Cl)cc23)CC1 -22.4%
CC(=O)c1ccc(NC(=O)C2CCCN(S(=O)(=O)c3ccc(Br)s3)C2)cc1 (stereo not given) 0.765%
CCOc1ccc(NC(=O)c2sc3nc4n(c(=O)c3c2C)CCCC4)cc1 7.36%
Cc1cc(Cl)ccc1NC(=O)CS(=O)(=O)c1cccc2nsnc12 -20.2%
Cc1cccc(NC(=O)c2ccc(F)c(S(=O)(=O)NCc3ccc4c(c3)OCO4)c2)c1 -20.1%
Cc1ccn2c(Nc3ccc4c(c3)OCO4)c(-c3ccc(C)o3)nc2c1 22.9%
Cc1ccc(C(=O)NCCSc2c[nH]c3ccccc23)cc1C -2.12%
CCOc1ccc(N(CC)C(=O)c2cc3c(s2)-c2ccc(Cl)cc2SC3)cc1 -11.5%
Cc1cc(C)cc(NC(=O)CSc2oc(-c3cccs3)nc2S(=O)(=O)c2ccc(Br)cc2)c1 9.23%
CCc1ccc(NCc2cc3ccc(OC)cc3n(CC(=O)Nc3ccccc3OC)c2=O)cc1 -13.8%
COC(=O)c1sc2cccc(F)c2c1S(=O)(=O)NC(C)c1ccccc1 (stereo not given) -12.1%
COc1ccc(OCc2nc(-c3ccc(OC)c(OC)c3)no2)cc1 -20.8%
CC(=O)Nc1ccc(C)cc1-c1nc2ccccc2n(Cc2cccc(Br)c2)c1=O -1.74%
CC(=O)Nc1c(C)nn(-c2ccccc2)c1N1CCC(C(=O)Nc2ccc(C)cc2Cl)CC1 25.3%
COc1cccc(-n2ccnc2SCC(=O)Nc2nc3ccc(C)cc3s2)c1 -41.7%
C1CCC(C(CC2CCCCN2)C2CCCCC2)CC1 (stereo not given)
CCCc1nc2nc(C)c(NS(=O)(=O)c3ccc(C)c(C)c3)c(=O)n2[nH]1 -3.07%
CCOC(=O)C1CCCN(C(=O)c2ccc(C)c(NC(=O)c3nsc4ccccc34)c2)C1 (stereo not given) -20.3%
COc1cccc(NC(=O)CSc2nnc3[nH]c(=O)cc(-c4ccccc4)n23)c1 37.8%
CC(=O)Nc1ccc(NC(=O)c2ccc3c(c2)CCN3S(=O)(=O)c2ccc(Cl)cc2)cc1 -35%
CCc1ccc(NS(=O)(=O)c2cc(Br)cc3c2N(C(C)=O)CC3)cc1 -1.14%
COc1ccc(CCNc2oc(/C=C/c3ccc(OC)c(OC)c3)nc2C#N)cc1 -13.9%
CCCOc1ccccc1C(=O)N1CCCCC1CCN1CCCCC1 (stereo not given) -13.2%
CCC(=O)N1c2ccccc2CC1C(=O)NCCc1ccccc1OC (stereo not given) -11.4%
